According to PMC5892938:
Some of the results follow. At the low end of the ranking, values are background and their order means little.

What follows are sequences tested against GST-SBP-SLBP (stem-loop binding protein) (UniProt Q14493) (assay: targeted RNA Bind-n-Seq). Conditions: RBNS binding buffer: 25 mM Tris pH 7.5, 150 mM KCl, 3 mM MgCl2, 0.1% Tween, 0.5 mg/mL BSA, 1 mM DTT; 27 nM protein, 750 pM RNA pool; temperature not stated; high values mean tight binding.
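Note: DESeq read counts versus GST-SBP nonspecific binding control pulldown.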

Sequence | binding signal (log2 fold change)
GGUCACGUCUCAAUCAACUCUUUCCCAGGAGUUUUCUCCUGUAAACUCAACAGCUCGCAGUCAAG | 0.0835
GGUCACGUCUCAAUCAACUCACACGAGGGGGGGAAAACCCCUUUACCCUCAUUAUCAACAGCUCGCAGUCAAG | 0.295
GGUCACGUCUCAAUCAACUCUUUUUCAGGAGUUUACUCCUGCUUUCUCAACAGCUCGCAGUCAAG | 0.152
GGUCACGUCUCAAUCAACUCAAUUCCCAGGGAAAUCCCUGGCUUACUCAACAGCUCGCAGUCAAG | 0.0187
GGUCACGUCUCAAUCAACUCAAUCGAGGGGGGGAAAACCCCUUUACCCUCAACCUCAACAGCUCGCAGUCAAG | -0.349
GGUCACGUCUCAAUCAACUCACAAGAGGGGGGGAAAACCCCUUUACCCUCAUUUUCAACAGCUCGCAGUCAAG | -0.452
GGUCACGUCUCAAUCAACUCAUCCUCAGGAGUUUACUCCUGUAUUCUCAACAGCUCGCAGUCAAG | -0.093
GGUCACGUCUCAAUCAACUCAAUCUCCAGGGAAAACCCUGGUUUUUUCAACAGCUCGCAGUCAAG | -0.104
GGUCACGUCUCAAUCAACUCUUUCUCCAGGGAAAGCCCUGGCAAUCUCAACAGCUCGCAGUCAAG | -0.111
GGUCACGUCUCAAUCAACUCUUCGCCAGGAGUUUUCUCCUGUUUUCUCAACAGCUCGCAGUCAAG | 0.0795
GGUCACGUCUCAAUCAACUCUCACGAGGGGGGGAAAACCCCUUUACCCUCACAAUCAACAGCUCGCAGUCAAG | 0.0362
GGUCACGUCUCAAUCAACUCUUCUUCCAGGGAAAGCCCUGGCUUACUCAACAGCUCGCAGUCAAG | -0.211
GGUCACGUCUCAAUCAACUCUUAAGAGGGGGGGAAAACCCCUUUACCCUCGAAAUCAACAGCUCGCAGUCAAG | -0.613
GGUCACGUCUCAAUCAACUCUUUUCCCAGGGAAAUCCCUGGCUAACUCAACAGCUCGCAGUCAAG | -0.246
GGUCACGUCUCAAUCAACUCUAUCUCCAGGGAAACCCCUGGCUAAUUCAACAGCUCGCAGUCAAG | 0.139
GGUCACGUCUCAAUCAACUCAUACGAGGGGGGGAAAACCCCUUUACCCUCAAUUUCAACAGCUCGCAGUCAAG | 0.0985
GGUCACGUCUCAAUCAACUCAAUCCCAGGAGUUUACUCCUGCUUAUUCAACAGCUCGCAGUCAAG | 0.163
GGUCACGUCUCAAUCAACUCAUUCCCAGGAGUUUGCUCCUGUAUACUCAACAGCUCGCAGUCAAG | 0.181
GGUCACGUCUCAAUCAACUCAACAGAGGGGGGGAAAACCCCUUUACCCUCAAUAUCAACAGCUCGCAGUCAAG | 0.362
GGUCACGUCUCAAUCAACUCUUUCCCAGGAGUUUCCUCCUGCUAAUUCAACAGCUCGCAGUCAAG | 0.0273
GGUCACGUCUCAAUCAACUCACAAGAGGGGGGGAAAACCCCUUUACCCUCCUAAUCAACAGCUCGCAGUCAAG | 0.145
GGUCACGUCUCAAUCAACUCUUAAGAGGGGGGGAAAACCCCUUUACCCUCAUCAUCAACAGCUCGCAGUCAAG | -0.00482
GGUCACGUCUCAAUCAACUCAAUUUCAGGAGUUUUCUCCUGCAAUCUCAACAGCUCGCAGUCAAG | 0.0948
GGUCACGUCUCAAUCAACUCUAUCCCAGGAGUUUGCUCCUGCAUUUUCAACAGCUCGCAGUCAAG | 0.0258
GGUCACGUCUCAAUCAACUCAUAAGAGGGGGGGAAAACCCCUUUGCCCUCAUUCUCAACAGCUCGCAGUCAAG | 0.0506

Sequence | binding signal (log2 fold change)
GGUCACGUCUCAAUCAACUCAACUCCCAGGGAAACCCCUGGCUUACUCAACAGCUCGCAGUCAAG | -0.278
GGUCACGUCUCAAUCAACUCUACUCCAGGAGUUUACUCCUGCAAACUCAACAGCUCGCAGUCAAG | 0.0519
GGUCACGUCUCAAUCAACUCAUUCCCCAGGGAAACCCCUGGCUUUCUCAACAGCUCGCAGUCAAG | -0.124
GGUCACGUCUCAAUCAACUCACUAGAGGGGGGGAAAACCCCUUUACCCUCCUAAUCAACAGCUCGCAGUCAAG | 0.0858
GGUCACGUCUCAAUCAACUCUACUCCAGGAGUUUCCUCCUGCAAACUCAACAGCUCGCAGUCAAG | -0.0806
GGUCACGUCUCAAUCAACUCAUUCUCCAGGGAAAGCCCUGGCAUACUCAACAGCUCGCAGUCAAG | -0.213
GGUCACGUCUCAAUCAACUCCUUAGAGGGGGGGAAAACCCCUUUGCCCUCAUCCUCAACAGCUCGCAGUCAAG | 0.0243
GGUCACGUCUCAAUCAACUCAAUUCCCAGGGAAAUCCCUGGCAAACUCAACAGCUCGCAGUCAAG | -0.103
GGUCACGUCUCAAUCAACUCAAUCCCAGGAGUUUUCUCCUGCAUUUUCAACAGCUCGCAGUCAAG | 0.0807
GGUCACGUCUCAAUCAACUCUUCCCCAGGAGUUUCCUCCUGUUUAUUCAACAGCUCGCAGUCAAG | 0.23
GGUCACGUCUCAAUCAACUCUUCUUCAGGAGUUUUCUCCUGCAAAUUCAACAGCUCGCAGUCAAG | -0.0994
GGUCACGUCUCAAUCAACUCUAGUCCCAGGGAAAUCCCUGGUUAUUUCAACAGCUCGCAGUCAAG | -0.398
GGUCACGUCUCAAUCAACUCAUCCUCCAGGGAAACCCCUGGUUUACUCAACAGCUCGCAGUCAAG | -0.00428
GGUCACGUCUCAAUCAACUCAGUCUCCAGGGAAAUCCCUGGCUAAUUCAACAGCUCGCAGUCAAG | -0.416
GGUCACGUCUCAAUCAACUCUUUCUCAGGAGUUUCCUCCUGUAAACUCAACAGCUCGCAGUCAAG | -0.0726
GGUCACGUCUCAAUCAACUCAUUUUCCAGGGAAAACCCUGGCUAUUUCAACAGCUCGCAGUCAAG | 0.00134
GGUCACGUCUCAAUCAACUCAAUAGAGGGGGGGAAAACCCCUUUACCCUCGUCUUCAACAGCUCGCAGUCAAG | -0.00387
GGUCACGUCUCAAUCAACUCAUACGAGGGGGGGAAAACCCCUUUACCCUCCAUUUCAACAGCUCGCAGUCAAG | -0.225
GGUCACGUCUCAAUCAACUCUUUCCCAGGAGUUUUCUCCUGCUUUCUCAACAGCUCGCAGUCAAG | 0.00375
GGUCACGUCUCAAUCAACUCAUCGUCAGGAGUUUUCUCCUGCUUAUUCAACAGCUCGCAGUCAAG | -0.0928
GGUCACGUCUCAAUCAACUCUACUCCAGGAGUUUCCUCCUGUUAUUUCAACAGCUCGCAGUCAAG | 0.0956
GGUCACGUCUCAAUCAACUCAGUUCCCAGGGAAACCCCUGGCUUAUUCAACAGCUCGCAGUCAAG | -0.418
GGUCACGUCUCAAUCAACUCUAUAGAGGGGGGGAAAACCCCUUUACCCUCGUCAUCAACAGCUCGCAGUCAAG | -0.538
GGUCACGUCUCAAUCAACUCUUCCCCCAGGGAAAACCCUGGUUAAUUCAACAGCUCGCAGUCAAG | 0.0968
GGUCACGUCUCAAUCAACUCAUCCCCCAGGGAAAGCCCUGGUUAUUUCAACAGCUCGCAGUCAAG | 0.061

Sequence | binding signal (log2 fold change)
GGUCACGUCUCAAUCAACUCAAUAGAGGGGGGGAAAACCCCUUUGCCCUCACCUUCAACAGCUCGCAGUCAAG | -0.204
GGUCACGUCUCAAUCAACUCAUCUCCAGGAGUUUACUCCUGCUUAUUCAACAGCUCGCAGUCAAG | -0.0718
GGUCACGUCUCAAUCAACUCAACUCCAGGAGUUUCCUCCUGUAAUCUCAACAGCUCGCAGUCAAG | 0.0408
GGUCACGUCUCAAUCAACUCUAUUCCAGGAGUUUACUCCUGCAUUCUCAACAGCUCGCAGUCAAG | 0.124
GGUCACGUCUCAAUCAACUCUAUCUCAGGAGUUUUCUCCUGCAAACUCAACAGCUCGCAGUCAAG | 0.0491
GGUCACGUCUCAAUCAACUCAACUCCCAGGGAAAGCCCUGGCAUAUUCAACAGCUCGCAGUCAAG | -0.159
GGUCACGUCUCAAUCAACUCUAUUUCCAGGGAAAACCCUGGCUUUCUCAACAGCUCGCAGUCAAG | -0.0657
GGUCACGUCUCAAUCAACUCUUUCUCAGGAGUUUUCUCCUGCUUAUUCAACAGCUCGCAGUCAAG | -0.0855
GGUCACGUCUCAAUCAACUCUAUCCCAGGAGUUUACUCCUGUUUACUCAACAGCUCGCAGUCAAG | -0.0195
GGUCACGUCUCAAUCAACUCAUUUCCAGGAGUUUCCUCCUGUAUUUUCAACAGCUCGCAGUCAAG | 0.131
GGUCACGUCUCAAUCAACUCAACUUCCAGGGAAACCCCUGGUAAAUUCAACAGCUCGCAGUCAAG | -0.181
GGUCACGUCUCAAUCAACUCUUCUCCCAGGGAAAUCCCUGGCUUACUCAACAGCUCGCAGUCAAG | 0.219
GGUCACGUCUCAAUCAACUCUAUUCCCAGGGAAAUCCCUGGCUAUUUCAACAGCUCGCAGUCAAG | -0.172
GGUCACGUCUCAAUCAACUCAGUCUCAGGAGUUUUCUCCUGUAUUUUCAACAGCUCGCAGUCAAG | -0.133
GGUCACGUCUCAAUCAACUCUAACGAGGGGGGGAAAACCCCUUUACCCUCAUACUCAACAGCUCGCAGUCAAG | 0.0444
GGUCACGUCUCAAUCAACUCAUUUCCCAGGGAAACCCCUGGCAUUUUCAACAGCUCGCAGUCAAG | 0.0607
GGUCACGUCUCAAUCAACUCUUUUCCAGGAGUUUACUCCUGCUUAUUCAACAGCUCGCAGUCAAG | -0.178
GGUCACGUCUCAAUCAACUCUAUUCCAGGAGUUUCCUCCUGUUUACUCAACAGCUCGCAGUCAAG | -0.0573
GGUCACGUCUCAAUCAACUCACAAGAGGGGGGGAAAACCCCUUUACCCUCAAUUUCAACAGCUCGCAGUCAAG | -0.115
GGUCACGUCUCAAUCAACUCAACUUCAGGAGUUUACUCCUGUUUACUCAACAGCUCGCAGUCAAG | 0.0839
GGUCACGUCUCAAUCAACUCAGAAGAGGGGGGGAAAACCCCUUUGCCCUCAAUAUCAACAGCUCGCAGUCAAG | -0.0258
GGUCACGUCUCAAUCAACUCAUCCUCCAGGGAAACCCCUGGUUAUCUCAACAGCUCGCAGUCAAG | 0.107
GGUCACGUCUCAAUCAACUCAUCUUCAGGAGUUUGCUCCUGCUAACUCAACAGCUCGCAGUCAAG | 0.185
GGUCACGUCUCAAUCAACUCUUCUUCAGGAGUUUACUCCUGUAUUUUCAACAGCUCGCAGUCAAG | -0.0895
